Test results reported in PMC4336329 (PLoS ONE, 2015).
The whole screen tested about 310,000 compounds, of which about 2,200 (0.71%) showed an effect of 50% or more. Effects have a minus sign here. This is one part of the list.

molecular target: human ether-à-go-go-related gene (hERG) potassium channel (human, UniProt Q12809); experiment: primary screen, population patch clamp on CHO cells stably expressing hERG
Sequence (Q12809 whole entry, looked up): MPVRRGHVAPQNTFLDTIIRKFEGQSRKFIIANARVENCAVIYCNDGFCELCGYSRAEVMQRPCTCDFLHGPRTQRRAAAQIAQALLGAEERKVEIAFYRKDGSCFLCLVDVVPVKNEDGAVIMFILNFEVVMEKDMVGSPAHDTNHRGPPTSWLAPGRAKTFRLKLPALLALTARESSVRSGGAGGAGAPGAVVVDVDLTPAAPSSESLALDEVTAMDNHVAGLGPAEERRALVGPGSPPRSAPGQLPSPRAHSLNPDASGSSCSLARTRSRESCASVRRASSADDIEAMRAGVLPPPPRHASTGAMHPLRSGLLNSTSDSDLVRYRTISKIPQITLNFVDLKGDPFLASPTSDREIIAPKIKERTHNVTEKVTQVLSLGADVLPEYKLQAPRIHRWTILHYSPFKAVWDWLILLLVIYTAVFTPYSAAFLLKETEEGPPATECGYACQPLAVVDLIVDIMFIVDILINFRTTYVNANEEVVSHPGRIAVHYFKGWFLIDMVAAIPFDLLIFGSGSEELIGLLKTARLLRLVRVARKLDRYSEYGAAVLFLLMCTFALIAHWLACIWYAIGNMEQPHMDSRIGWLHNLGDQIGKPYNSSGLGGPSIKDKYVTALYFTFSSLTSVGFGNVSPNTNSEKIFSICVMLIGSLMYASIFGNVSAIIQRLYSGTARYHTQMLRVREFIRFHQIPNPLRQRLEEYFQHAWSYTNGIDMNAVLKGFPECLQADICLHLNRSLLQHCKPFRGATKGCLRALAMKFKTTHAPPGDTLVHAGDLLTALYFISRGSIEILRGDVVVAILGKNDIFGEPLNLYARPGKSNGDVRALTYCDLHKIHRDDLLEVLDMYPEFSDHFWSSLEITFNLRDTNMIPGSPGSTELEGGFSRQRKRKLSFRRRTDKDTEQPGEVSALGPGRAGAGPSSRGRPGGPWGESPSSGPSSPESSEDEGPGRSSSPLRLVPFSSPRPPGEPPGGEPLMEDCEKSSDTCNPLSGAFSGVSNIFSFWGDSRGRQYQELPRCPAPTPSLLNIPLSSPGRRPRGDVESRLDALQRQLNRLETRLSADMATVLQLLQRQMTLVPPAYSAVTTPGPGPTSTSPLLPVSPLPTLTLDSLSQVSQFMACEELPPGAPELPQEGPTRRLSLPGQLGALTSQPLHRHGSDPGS

Structure (SMILES)	hERG current change (%, negative = inhibition) at 1uM
CCCCc1nc2sc3c(c2c(=O)n1NC(=O)c1ccco1)CC(C)(C)OC3	10.6%
CNC(=O)c1ccc2nc(NC(C)=O)sc2c1	-20.9%
CCOC(=O)c1c(C)[nH]c(C)c1C(=O)COC(=O)[C@@H](NC(=O)c1ccccc1OCC)C(C)C	13.6%
CCNC(=O)CSc1nc2ccccc2c(=O)n1-c1cccc(OC)c1	17.1%
O=S(=O)(c1ccccc1)N(CC1CO1)c1cccc2ccccc12 (stereo not shown)	3.18%
O=C1CSC(=S)N1/N=C/c1cccc(C(F)(F)F)c1	4.83%
Cc1ccc(C2=Nc3cccnc3C(c3ccccc3)=NN2)cc1	0.403%
CCOc1ccc(/C=C2\CCCc3c2nc2ccccc2c3C(=O)O)cc1OC	9.62%
CSCCC(NC(=O)c1ccco1)C(=O)N1CC=C(c2ccccc2)CC1 (stereo not shown)	-1.93%
COc1ccc(NS(=O)(=O)c2cccc(N3CC(O)=C(c4ccccc4)C3=N)c2)cc1	21.3%
CC(/C=C1\SC(=S)N(CCC(=O)Nc2cccc(C(=O)O)c2)C1=O)=C\c1ccccc1	7.22%
COC(C[C@H](O)C[C@H](O)[C@H](C)OCc1ccccc1)OC	17.1%
CC(=O)n1cc([C@H]2C=C(C(=O)N3CCN(Cc4ccccc4)CC3)O[C@@H](OCc3ccc(CO)cc3)C2)c2ccccc21	2.68%
COC(=O)NCc1cccc(CNC(=O)OC)c1	6.48%
COCC(=O)OC/C(O)=C(\C#N)c1nc2ccccc2[nH]1	9.83%
Cn1ncc(Cl)c1C(=O)N1CCN(c2ncccn2)CC1	12.8%
C/C(CC(=O)Nc1ccc2c(c1)OCO2)=N\NC(=O)c1ccc(N)cc1	11%
CCOc1ccc(C(=O)Oc2ccc(NC(C)=O)cc2)cc1	0.65%
CC1CN(S(=O)(=O)c2ccc(C(=O)Nc3ccc(S(=O)(=O)N4CCOCC4)cc3)cc2)CC(C)O1 (stereo not shown)	15.7%
Nc1cc(=O)[nH]c(SCc2ccccc2Cl)n1	14.1%

Structure (SMILES)	hERG current change (%, negative = inhibition) at 1uM
C=CCn1c(O)c(C(C)=NCCC2=CCCCC2)c(=O)[nH]c1=O	9.73%
Cc1cc(=O)oc(C)c1C(=O)NNC(=O)C1(C)CC1Br (stereo not shown)	16.7%
OC(CNCc1ccc2c(c1)OCO2)COc1ccc(F)cc1 (stereo not shown)	2.12%
O=C(c1cccc(S(=O)(=O)Nc2ccccc2F)c1)N1CCN(c2ccccc2F)CC1	-2.51%
Cc1ccc(C(=O)NNC(=S)Nc2cccc(Cl)c2Cl)cc1[N+](=O)[O-]	8.54%
Cc1ccc(C(=O)COc2ccc3c(C)cc(=O)oc3c2)cc1	7.38%
O=C(NC1CCN(C(=S)Nc2ccccc2)CC1)C1CCCCC1	4.03%
Cc1cc(N2CCN(c3ccccc3)CC2)n2nnnc2n1	-1.41%
CC(=O)Nc1ccn(Cc2c(F)cccc2Cl)n1	13%
Cc1ccc(NC(=O)CSc2ncn(-c3ccccc3)n2)cc1C	0.136%
CC(C)NC(=O)c1cccc(C(F)(F)F)c1	-1.91%
CC(NC(=O)COC(=O)CNC(=O)c1ccc(-c2ccccc2)cc1)c1ccccc1 (stereo not shown)	12.4%
O=C(O)c1ccc(Cl)c(S(=O)(=O)N2CCCC2)c1	11.8%
COc1ccc(CC(=O)NC2CCCCCC2)c(OC)c1	2.36%
CCc1ccc(CN(C)C(=O)c2ccc3c(c2)OCCO3)cc1	14.6%
CN1CCN(Cc2ccc(OC(F)(F)F)cc2)CC1	-14%
CCC(NC(=O)c1cc(COc2ccc(Cl)cc2OC)on1)c1ccncc1 (stereo not shown)	1.21%
CCCCOc1ccc(C(O)(CC)CCN2CCOCC2)cc1 (stereo not shown)	11.2%
CCN(CC)c1ccc(C(=O)OCC(=O)NCC2CCCO2)cc1 (stereo not shown)	-6.68%
COC(=O)Nc1nc2ccc(Br)cc2s1	18.1%

Structure (SMILES)	hERG current change (%, negative = inhibition) at 1uM
O=C(NNC(=O)c1ccc[nH]1)c1cc(Cl)cc(Cl)c1	11.4%
C=CCC1(C#N)C(=S)NC(C)=C(C(=O)OCC)C1c1ccccc1 (stereo not shown)	9.85%
Cc1onc(-c2c(F)cccc2Cl)c1C(=O)Nc1cccc2nsnc12	-18%
O=C(Nc1nnc(CCc2ccccc2)s1)c1cccs1	15.2%
COc1cc(OC)cc(C(=O)N[C@H](C(=O)OCC(=O)Nc2sccc2C#N)C(C)C)c1	8.56%
CC(C)NC(=O)c1ccc(C(C)C)cc1	10.1%
COc1cc2c(cc1OC)C(C)N(C(=O)c1ccc(Cl)c(S(=O)(=O)N3CCCCC3)c1)CC2 (stereo not shown)	9.37%
Br.Cc1ccnc(Nc2nc(-c3ccccc3)cs2)c1	1.41%
O=C(Nc1cccc(-n2cnnn2)c1)c1ccc(OC(F)(F)F)cc1	-8.05%
O=C(OCc1nnc(-c2ccccc2)o1)C1CC(=O)N(c2ccccc2)C1 (stereo not shown)	5.84%
CSc1ncnc2c1ccn2CC(=O)Nc1ccc(C)c(C)c1	8.84%
CC(=O)Nc1cccc(C(=O)NCC2(N3CCCCC3)CCCCC2)c1	19.9%
O=C(CNC(=O)c1ccccc1)OCc1nnc(-c2ccc(Cl)cc2)o1	-0.318%
COc1ccc(C(=O)O)cc1NS(=O)(=O)c1cccc2nsnc12	8.43%
CCc1nnc(NC(=O)CCC(=O)N2CCN(CCc3ccccc3)CC2)s1	7.94%
COc1ccccc1CNc1cc(CSc2ccc(Cl)cc2)nc(C)n1	15.3%
COc1ccc(NC2CC(=O)N(c3cccc(C)c3)C2=O)cc1 (stereo not shown)	10%
CCN(CC(=O)Nc1ccc(NC(C)=O)cc1)C(=O)c1ccc2c(c1)OCO2	8.97%
